Data: PubChem BioAssay AID504832 (National Center for Advancing Translational Sciences (NCATS), 2011)
Hit rate of the full screen: of about 310,000 compounds, about 18,000 (5.8%) were called active. The inconclusive results got no clear call from the source; some entries with a clear call stand among them for comparison. The call rests on the fitted dose curve; in most records, active means well fitted inhibition curve with a large enough effect; inconclusive means small, poorly fitted or top-dose-only effect, or another doubt; inactive means no such curve, though single readings can be large or run the other way. Potencies of inconclusive entries are left out as doubtful fits.
Potency means the concentration at half of the fitted maximal effect; tags describe the fitted curve by direction and shape.

Test: Primary qHTS for delayed death inhibitors of the malarial parasite plastid, 48 hour incubation
Settings: P. falciparum luciferase growth in erythrocytes; series mostly up to 28.7 µM
Summary of the method: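 Here the parasites carry a stable luciferase gene and grow inside erythrocytes in Albumax-based RPMI medium with compound for one erythrocytic cycle. Activity is scored as loss of luminescent signal.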
In the case of `O=[N+]([O-])c1ccc(N/N=C/c2cccc(O)c2O)c(S(=O)(=O)N2CCOCC2)c1`, the Potency is reported as inconclusive [inhibitor, partial curve]. For `CCc1cc(=O)oc2cc(C)cc(OC(C)C(=O)NC3CC(C)(C)NC(C)(C)C3)c12` (configuration not stated), the Potency was inconclusive [inhibitor, single point]. For `C=C1C(=O)[C@@]23[C@H](O)C[C@@H]4C(C)(C)CC[C@H](O)[C@]4(C)[C@@H]2C[C@H](O)[C@@H]1[C@H]3O`, the Potency was active: 9.28 µM. For `O=C(NCCCN1CCN(c2cccc(Cl)c2)CC1)c1ccc(N2CCCC2=O)cc1`, the Potency was inconclusive [inhibitor, single point]. With `O=c1oc(-c2ccccc2)cc(Cl)c1Cl` the Potency was “inactive”. In the case of `COc1ccccc1NC(=O)C(C)N(C)Cc1ccc(Cl)s1` (configuration not stated), the Potency is reported as active: 8.28 µM. For `COC(=O)C1CCN(c2nc3ccccc3nc2C(C#N)C(=O)OCC(C)C)CC1` (configuration not stated), the Potency was inconclusive [inhibitor, partial curve]. For `CC1CCN(S(=O)(=O)c2ccc(NC(=O)CN3CCN(c4ccccc4)CC3)cc2)CC1`, the Potency was inconclusive [inhibitor, partial curve]. For `COc1ccc(NC(=O)/C=C/c2ccc(OC)c(OC)c2)cn1`, the Potency was inconclusive [inhibitor, single point]. With `CC(NC(=O)C(=O)N1CCCCC1)C(c1cccs1)N1CCN(c2ccc(F)cc2)CC1` (configuration not stated) the Potency was inconclusive [inhibitor, single point]. With `CCc1ccc(N2C(=O)CN(Cc3ccc(OC)c(OC)c3)C2=S)cc1` the Potency was inconclusive [inhibitor, single point]. In the case of `CCCCNc1ncnc2c1cnn2-c1ccc(Cl)cc1`, the Potency is reported as “inactive”. In the case of `CCCCn1c(O)c(C(CC)=NCCN2CCCCC2)c(=O)[nH]c1=O`, the Potency is reported as inconclusive [inhibitor, single point]. With `O=S(=O)(c1ccccc1)c1ccc(N2CCCCCC2)cc1` the Potency was inconclusive [inhibitor, full curve]. For `Cc1c(C=O)c2ccccc2n1Cc1cccc(F)c1`, the Potency was inconclusive [inhibitor, partial curve]. In the case of `COc1ccc(OCCSc2nnc3sc4ccccc4n23)cc1`, the Potency is reported as inconclusive [inhibitor, full curve]. In the case of `Cc1ccc(NC(=O)CNC(=O)c2ccco2)cc1`, the Potency is reported as “inactive”. For `Cc1nc2ccccc2c(=O)n1N(c1ccccc1)c1ccccc1`, the Potency was inconclusive [inhibitor, full curve, poor fit]. With `N#CC1=C(SCc2ccccc2Cl)NC(=O)C(C(N)=O)C1` (configuration not stated) the Potency was “inactive”. In the case of `COc1ccc(CCN(C)CCCN2CCc3cc(OC)c(OC)cc3CC2=O)cc1OC`, the Potency is reported as inconclusive [inhibitor, single point]. With `CCOC(=O)c1c(NC(=O)CSc2ncnc3[nH]ncc23)sc2c1CCC(C)C2` (configuration not stated) the Potency was inconclusive [inhibitor, single point]. For `COc1cccc(C2Nc3c(F)cc(Br)cc3C3C=CCC32)c1OC` (configuration not stated), the Potency was active: 9.28 µM. In the case of `c1ccc(-n2nnnc2-c2cnc(-c3ccncc3)nc2-c2cccs2)cc1`, the Potency is reported as active: 10.4 µM. In the case of `Cc1nc2nc(COc3ccccc3)nn2c(C)c1Cl`, the Potency is reported as “inactive”. For `Fc1cccc(NC(=S)NNc2ccccc2)c1`, the Potency was inconclusive [inhibitor, partial curve, poor fit]. For `Cc1cc(C)cc(OC2CCCCC2NS(=O)(=O)c2ccccc2)c1` (configuration not stated), the Potency was inconclusive [inhibitor, single point]. For `Brc1cc2c(cc1C1Nc3ccccc3C3C=CCC31)OCO2` (configuration not stated), the Potency was inconclusive [inhibitor, single point]. For `O=C(COC(=O)COc1ccc(Cl)cc1)Nc1ncc(Br)s1`, the Potency was “inactive”. In the case of `CCC(C)(C)c1ccc(OCCCC[n+]2ccc(C)cc2)c(C(C)(C)CC)c1`, the Potency is reported as active: 1.85 µM. In the case of `CC(C)Oc1ccc(S(=O)(=O)N2CCCCC2)cc1NC(=O)CN1C(=O)NC(C)(C2CC2)C1=O` (configuration not stated), the Potency is reported as inconclusive [inhibitor, single point]. In the case of `CCOC(=O)[C@H]1[C@H]2COc3ccccc3[C@@H]2N2C(=O)c3cc(OC)c(OC)cc3NC(=O)[C@@]12C`, the Potency is reported as inconclusive [inhibitor, partial curve, poor fit]. With `CCN1C(=O)C(CC(=O)Nc2ccc(F)cc2)N(CCc2ccc(OC)cc2)C1=S` (configuration not stated) the Potency was inconclusive [inhibitor, single point]. For `CNC(=O)NC(=O)CSc1ccc(S(=O)(=O)N(C)C2CCCCC2)cn1`, the Potency was inconclusive [inhibitor, single point]. With `O=C(c1cccc(C(F)(F)F)c1)C1CCCN(C(=O)Cn2cncn2)C1` (configuration not stated) the Potency was “inactive”. With `CC12CC(O)C3c4ccc(O)cc4CCC3C1CCC2=O` (configuration not stated) the Potency was inconclusive [inhibitor, partial curve, poor fit]. In the case of `Nc1nc2ccccc2n1/N=C/c1ccc([N+](=O)[O-])s1`, the Potency is reported as inconclusive [inhibitor, full curve, poor fit]. In the case of `Cc1ccc(NC(=O)CN2CC(C)SC2=NC2CCCCC2)cc1` (configuration not stated), the Potency is reported as inconclusive [inhibitor, single point]. With `CCCCNC(=O)C1CCN(S(=O)(=O)c2ccc3c(c2)CC(C)N3C(=O)C2CC2)CC1` (configuration not stated) the Potency was inconclusive [inhibitor, full curve, poor fit]. In the case of `COc1ccc(Cc2nnc(SCC(=O)Nc3cc(Cl)ccc3OC)[nH]c2=O)cc1`, the Potency is reported as inconclusive [inhibitor, single point]. In the case of `CCOC(=O)N1CCN(CC(=O)Nc2cc(OC)c(OC)cc2C#N)CC1`, the Potency is reported as inconclusive [inhibitor, full curve, poor fit]. For `COc1ccccc1OC(=O)Cc1cccc2ccccc12`, the Potency was “inactive”. In the case of `O=C(NNC(=S)NC1CC2CCC1C2)c1ccc(Cl)cc1` (configuration not stated), the Potency is reported as inconclusive [inhibitor, single point]. In the case of `Cc1ccc(C(=O)NCc2cccc(C(F)(F)F)c2)cc1S(=O)(=O)N1CCCCC1`, the Potency is reported as inconclusive [inhibitor, single point]. With `CCOC(=O)C(CSCc1ccccc1)NC(=O)OC(C)(C)C` (configuration not stated) the Potency was inconclusive [inhibitor, full curve, poor fit]. For `O=C(Nc1ccc(N2CCN(C(=O)c3ccccc3)CC2)cc1)c1cc2ccccc2o1`, the Potency was active: 11.7 µM. With `Cc1c2cn[nH]c(=O)c2c(C)n1Cc1ccc(F)cc1` the Potency was active: 11.7 µM. For `Cc1ccc2c(c1)N(CC(=O)NCCC1=CCCCC1)C(=O)c1cccnc1O2`, the Potency was inconclusive [inhibitor, partial curve]. With `Cc1cccc(-n2cnc3c(c2=O)c2nc4ccccc4nc2n3Cc2ccco2)c1` the Potency was inconclusive [inhibitor, single point]. With `CN1CCCC1CCNc1ccc2c(=O)c3ccccc3oc2c1` (configuration not stated) the Potency was “inactive”. For `COc1ccc(OC)c(NC(=O)c2cccc(S(=O)(=O)N(Cc3ccccc3)c3ccccc3OC)c2)c1`, the Potency was active: 14.7 µM. With `CCCCC/S(CC1CC1(Cl)Cl)=N\S(=O)(=O)c1ccc(C)cc1` (configuration not stated) the Potency was inconclusive [inhibitor, single point]. With `O=C(N/N=C/c1cccc2nccnc12)c1ccccc1O` the Potency was inconclusive [inhibitor, single point]. For `CCN(C(=O)CSc1nnc(-c2ccc(Cl)cc2)n1C)C1CCS(=O)(=O)C1` (configuration not stated), the Potency was “inactive”. In the case of `COc1ccccc1N1CCN(CC(=O)Nc2ccc(S(=O)(=O)N3CCCCCC3)cc2)CC1`, the Potency is reported as inconclusive [inhibitor, partial curve, poor fit]. For `COc1cccc(C2c3c(oc4ccccc4c3=O)C(=O)N2CCCN(C)C)c1OC` (configuration not stated), the Potency was inconclusive [inhibitor, partial curve, poor fit]. For `COc1ccc2cc1Oc1ccc(cc1)C[C@H]1c3cc(c(OC)cc3CCN1C)Oc1c(OC)c(OC)cc3c1[C@@H](C2)N(C)CC3`, the Potency was active: 2.33 µM. For `Cc1cc2ccccc2n1CCNC(=O)Cc1cccc2ccccc12`, the Potency was inconclusive [inhibitor, single point]. In the case of `CCOC1=C/C(=C/c2c(N)n3nc(-c4ccccc4)sc3nc2=O)C=CC1=O`, the Potency is reported as inconclusive [inhibitor, partial curve, poor fit]. With `COc1cc(C(=O)NCCN2CCN(C(=O)c3cc(OC)c(OC)c(OC)c3)CC2)cc(OC)c1OC` the Potency was “inactive”. In the case of `CCOc1ccc(NC(=O)CC(NC(C)=O)c2ccccc2)cc1S(=O)(=O)N1CCCC1` (configuration not stated), the Potency is reported as inconclusive [inhibitor, single point]. In the case of `COc1ccc(C2(C#N)CCC(C(=O)O)CC2)cc1OC1CCCC1` (configuration not stated), the Potency is reported as inconclusive [inhibitor, single point]. In the case of `CCC(C(=O)N/N=C(\C)c1cccnc1)c1ccccc1` (configuration not stated), the Potency is reported as “inactive”. In the case of `CCCc1c(C)nc(SCC(=O)C(C)(C)C)nc1OC(=O)N(C)C`, the Potency is reported as inconclusive [inhibitor, single point]. For `CC(C)c1ccc(-c2c(NCCc3ccccc3)c(=O)c2=O)cc1`, the Potency was “inactive”. For `O=C(CN(Cc1ccco1)C(=O)c1ccc(F)cc1F)Nc1ccccc1C(F)(F)F`, the Potency was inconclusive [inhibitor, single point]. With `CCC1(CC)NC(=O)N(CC(=O)NC(=O)NCc2ccccc2)C1=O` the Potency was “inactive”. In the case of `CCOC(=O)c1c(C)[nH]c(C)c1C(=O)COC(=O)c1ccc(Cl)c(S(N)(=O)=O)c1`, the Potency is reported as inconclusive [inhibitor, single point].
